In the RNAGym collection of RNA variant scans (doi:10.7554/elife.90254) one finds self-cleavage data, which are given here for 167 variants.

To fix the notation:
B1: OR4K15 (parent)
chain: GUUAACGGUCAUAGGCCAUGGAAACUAGGAGCACCAUUUCGCUGCCAGUGAAGAAAUGAACAAAGAAAAUCUGGGCCAGGCAGGCAUCAAAAGAAAUAGUCUUGCGCUCAACCAGAAAGUCUGUAAUCAUUUUAAGGGUA

Read counts are not given, so values of variants with three or more changes are uncertain.

The variants in this series derive from B1. In words: self-cleavage, relative activity (ratio to wild type); higher = more cleavage; in vitro, sequencing; the parent is a self-cleaving ribozyme.
Turning to A23G A62G U139C, the self-cleavage was determined as 1.
Turning to A22G A94G A98C, the self-cleavage was 1.71.
Turning to A23G A51G A89U, the self-cleavage worked out at 1.16.
The value for A23G C85U U87A U100A A111G was 0.02; that for A23G A68G C109A was 0.52; that for A22U U38C U97A was 0.63.
The same measure for A22G A90U A114U: 0.21.
As for A23G A33G U37C A52G U122A, the self-cleavage was determined as 0.27.
The same measure for A22U G74A G83U: 0.19.
The same measure for A22G G79A A82G A116G: 0.09.
The same measure for A23G A95G A125G U133C: 1.07.
As for A22U A33C A69G U108C, the self-cleavage is 0.03.
The value for A23G A51G A67G A94G was 1.31.
The value for A23G A92G U108C U120A was 0.01; that for A22G U57C A62G C81U was 0.28; that for A23G A78G A116G was 0.15.
The same measure for A22G U49C U132C: 1.51; for A23G U26C U38C A69G U120C: 0.37.
As to A22G A90G A129U U130C, the self-cleavage came to 0.68.
With A23G A33C U57A, the self-cleavage is 1.61.
On to A22U U39C A59G A68G A90G A140G, for which the self-cleavage worked out at 1.25.
The value for A23G A66U A96G U108G was 0.01.
The value for A23G A67G U102C U132A A140G was 1.83.
The value for A22U A52G A94G was 1.24; that for A22G U26C A56G was 1.11.
With A22U A92G A116U, the self-cleavage came out at 0.34.
As to A23G A24U U57C A89G U97C U100C, the self-cleavage amounted to 1.29.
The same measure for A22G G29A U37C A92G U103C A111G A126G: 0.04; for A23G U37C A56G U122C: 0.22.
The value for A22U A23U A64G A68G was 1.16; that for A22G U124G U127A A129G was 0.36; that for A22G A95G A118G G136A was 1.59.
Consider A22G U26A A62G, for which the self-cleavage was determined as 0.93.
A23G A89G A116G: the self-cleavage came out at 0.32.
With A23G A67G A126G, the self-cleavage was 0.93.
In the case of A23G A52U U102C, the self-cleavage was found to be 1.69.
The value for A22U A86G A116C U132C U133C was 0.02; that for A23G A51G A62G C128A was 0.4.
Take A22G U37C U100C: the self-cleavage is 2.43.
The value for A23G A67G A95U U108C A118G U127A was 0; that for A22G U49A A90G was 1.09; that for A23G A64G A82G was 0.27.
The value for A23G A24G A30G A47U A94G was 0.91; that for A23G A89G A92G A134G was 0.85; that for A22U U49C A55G A82U U133C A134G was 0.12.
Consider A22G A89U A118G, for which the self-cleavage came out at 0.82.
Take A22U U39C A78G A89G U122C: the self-cleavage was 0.29.
The same measure for A22U A36G U100A A117G: 1.42; for A22U A36G U38C A114G U127C: 0.03.
Turning to A22G A96U U127C, the self-cleavage is 1.05.
The value for A23G G41U A67G U122C A134U was 0.98; that for A23G A55G A135G was 1.
The same measure for A22U U39A U57A: 1.31.
The same measure for A23G A47G A64G A69G: 0.22.
As for A23G A64G A82G A111G, the self-cleavage came out at 0.08.
As for A22G U57G A78G A90G, the self-cleavage is 0.26.
As for A23G A24G A86G, the self-cleavage stood at 2.57.
The value for A23G A54G A125G was 0.29; that for A23G A33G A135G was 1.58.
The same measure for A22U A33G A95G A129G: 0.85; for A22U U72A A78G: 0.17.
For the variant A22G U37C U108A, the self-cleavage is 0.01.
The same measure for A23G U38C A60G A67G U72G: 0.04; for A22G G44U U124C U132C: 0.66.
For A22G U37C A67G, the self-cleavage stood at 0.86.
The same measure for A22U A59G A62U: 1.02.
The same measure for A23G A30G U108A U132C: 0.1.
The value for A22U A86G A92U was 1.35.
In the case of A22G C35U C112U A116G, the self-cleavage is 0.
The value for A23G A52G A55G was 0.83; that for A22U U70C A78G was 0.21.
Regarding A23G A54G U57A U72C U131C, the self-cleavage is 0.39.
The same measure for A22U A118G A135U: 1.17; for A22G U37C A64G A91G: 1.23; for A22G U72C U87C: 0.23.
The same measure for A23G A27G G50A C81U: 0.38.
The value for A22G C105A A116G U120C was 0.06; that for A23G U37C A117G was 1.94; that for A22G U37C A110G was 0.17.
For A22U A52G A59C A86C U122A, the self-cleavage is 0.44.
The value for A23G A68G G83U U122A was 0.32.
With A23G U37C C71A A116U, the self-cleavage is 0.05.
The value for A22G U39C U70C A94G A111G was 0.02.
Consider A22G A98U A140G, for which the self-cleavage stood at 1.88.
The same measure for A23G C35U A62G: 1.18; for A23G A82G C109U U132C: 0.12.
The value for A22G U39C G73A U108C U130C was 0; that for A23G A56G A68G U87C A89G was 0.55.
The value for A22G G31C A64U A116C was 0.15.
Turning to A23G A47G A78G A111G, the self-cleavage came out at 0.12.
The same measure for A22U G31U A51G C88U A92G A96G U108C A110G: 0.01; for A22G U38C U100C: 1.65; for A23C A47G A91U: 0.43.
The value for A22U U97C A118G was 0.49; that for A22G U37C U43C U72C was 0.51.
The value for A22G U37C G74A A114G was 0.09; that for A23G A33U A78G A91G A126G was 0.02; that for A23G A52G A118U U132C was 0.41.
Turning to A22G U39C A55G A78C U132C, the self-cleavage was determined as 0.22.
The value for A22G U39C U133C was 2.09.
The value for A22G U43C A118G was 0.59; that for A22G A78C A94G U100C A118G was 0.29; that for A22G U38C A64G U103C U130C was 1.23.
The value for A23G A59G A62U G79A A89G was 0.12; that for A22G U72C A96G A116G U132C was 0.08.
A22U A67G A86G U120C: the self-cleavage stood at 0.41.
The same measure for A22G U37C A89G A91G: 1.32.
The value for A23G A30G A68G U87C A98G C105U was 0.09.
Turning to A22G A90G A94G A111G, the self-cleavage worked out at 0.07.
With A23G A55U G74A, the self-cleavage was 0.16.
The value for A22G U38C A91G U102G A117U was 0.26.
Turning to A23G A54G A69G A82G A118G, the self-cleavage was 0.23.
The value for A22G U57G U87C U131A was 1.15; that for A22U A89G A117G was 1.9; that for A22G U49C A62G U70C U130C U139C was 0.18.
The value for A23G A52G A94G A95G was 1.76; that for A23G A33U A82G was 1.32.
The same measure for A22U A51G U100C: 1.54; for A22U A54G A68G A69G A86G A134G: 1.33; for A23G A98G A118G U131C: 0.26.
A22G G28U A68G C113U U131C: the self-cleavage was found to be 0.02.
The same measure for A22G U37C G79A U132C: 0.06.
The value for A22G A98U U108A U127C was 0; that for A22U A47G U70C A92G U139C was 0.51.
The same measure for A22U U26C A82U: 0.18.
For A22G A78C U120C, the self-cleavage was found to be 0.16.
The same measure for A23G A55G A56G A60G A94G A110U: 0.
The same measure for A23G A36G A91U A95U U127C: 1.3; for A23G A62C C121U A129U: 0.68.
The value for A23G U37C A51G was 0.75; that for A23G A56G C113A was 0.06; that for A22G U39C U70C G79A was 0.05.
As for A23G A59G A67G G136A, the self-cleavage was determined as 0.78.
On to A22G U87C U108A A114U, for which the self-cleavage stood at 0.02.
With A23G A63G A134U, the self-cleavage worked out at 0.
The value for A22G U37C A89G A118G A140G was 1.28; that for A22G U37C A56G A96G was 1.44; that for A22U A52G G74U C105U U130C was 0.
Turning to A22U U127A U130C, the self-cleavage was determined as 1.9.
Consider A22G A95G A129G, for which the self-cleavage is 2.16.
The same measure for A22G U43C U49C A54G C109A: 0.66.
The same measure for A23G A30G U43A A91G U108C: 0.1; for A22G U26C A110G A117C: 0.17.
The value for A23G G41A A92G was 1.15; that for A23G A24G U26C A30G A63G A89G was 0.99; that for A22G U43G A140G was 0.58.
With A22G U70A A126U U132A, the self-cleavage is 0.25.
The same measure for A22G U39C U43C C85U A118G: 0.65; for A23G A117G U132C: 1.05; for A22U A92U U97A: 1.59.
The same measure for A22G A91G A94G: 1.33; for A22U G79U U87C A134G: 0.07.
The value for A22G C71A U87A A94U was 1.04; that for A23G A30U A63G A118G was 0.38.
Take A23G A68G U127C: the self-cleavage was 1.11.
The value for A23G A66G A67G A69G was 0.96; that for A23G A62U U72A G75C U122C G136A was 0.17.
The value for A23G A95G A135G was 2.26; that for A23G A56U A92G A95G A116G was 1.4; that for A22U U108C A125G was 0.01.
The same measure for A23G A66U A90G U108C: 0.03.
A23G U38A U72C: the self-cleavage is 0.24.
Consider A23C A82G A94G U102A, for which the self-cleavage worked out at 0.1.
The value for A23G G79A C105U U132C was 0.05.
As for A22G U38C U122C, the self-cleavage came out at 1.46.
The same measure for A23G A55G A59G: 1.09; for A23G A30U G41C A118G: 1.02.
